{
  "source": "PubChem BioAssay AID488969",
  "about": "(Vanderbilt High Throughput Screening Facility, 2010)",
  "note": "In all, about 110,000 compounds were measured (“z-score”: median about -0.1, highest 2% from about 2 on). The list shows a part of the results.",
  "data": [
    {"target": "Metabotropic glutamate receptor 8 (Rattus norvegicus) (UniProt P70579)", "sequence (P70579 whole entry, looked up)": "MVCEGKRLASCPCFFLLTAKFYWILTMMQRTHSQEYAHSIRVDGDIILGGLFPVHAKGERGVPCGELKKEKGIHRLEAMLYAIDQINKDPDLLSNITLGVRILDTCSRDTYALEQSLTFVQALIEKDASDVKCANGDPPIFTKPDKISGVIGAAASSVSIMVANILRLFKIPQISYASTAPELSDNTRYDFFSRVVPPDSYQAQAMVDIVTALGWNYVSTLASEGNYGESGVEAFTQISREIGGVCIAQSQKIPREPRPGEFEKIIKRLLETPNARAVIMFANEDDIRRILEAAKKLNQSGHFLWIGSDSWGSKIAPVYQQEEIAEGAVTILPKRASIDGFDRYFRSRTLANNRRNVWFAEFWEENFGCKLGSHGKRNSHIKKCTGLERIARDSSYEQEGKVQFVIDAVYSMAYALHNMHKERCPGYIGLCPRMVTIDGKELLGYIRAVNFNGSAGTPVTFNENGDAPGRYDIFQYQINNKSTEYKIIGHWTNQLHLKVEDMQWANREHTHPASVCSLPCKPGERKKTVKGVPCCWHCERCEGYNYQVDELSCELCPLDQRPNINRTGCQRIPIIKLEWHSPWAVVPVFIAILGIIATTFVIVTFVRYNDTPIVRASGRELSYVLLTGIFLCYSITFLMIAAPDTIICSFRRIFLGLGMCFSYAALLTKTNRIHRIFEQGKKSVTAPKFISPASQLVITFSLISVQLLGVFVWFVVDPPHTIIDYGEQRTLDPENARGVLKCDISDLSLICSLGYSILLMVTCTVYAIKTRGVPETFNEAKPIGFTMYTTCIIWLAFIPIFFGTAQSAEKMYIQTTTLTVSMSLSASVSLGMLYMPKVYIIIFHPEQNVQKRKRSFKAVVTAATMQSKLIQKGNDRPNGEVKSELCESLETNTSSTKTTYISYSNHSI", "experiment": "mGluR8 Gi/Go-coupled signaling modulation – cell-based, rat, thallium flux, HTS, primary screen (AID 488969)", "conditions": "HEK293 rat mGluR8, GIRK (G protein-gated inwardly rectifying potassium channel) thallium flux, FluoZin2; at 10 µM; stronger effect = higher value; submaximal glutamate (EC20) added with thallium", "values": [
      {"smiles": "COCCOC(=O)c1[nH]c2c(c1C)C(=O)C(C(=O)OC)C(C)C2", "note": "(stereo unspecified)", "z-score": 0.625},
      {"smiles": "O=C(CSc1nc2sc3c(c2c(=O)n1-c1ccccc1)CCCC3)NCc1ccco1", "z-score": -1.75},
      {"smiles": "CC1=CC(=O)C(C(C)C)=C/C1=N/OC(=O)c1cccc([N+](=O)[O-])c1", "z-score": -0.12},
      {"smiles": "CC(C)(C)OC(=O)N1CCC[C@H]1c1nnc(SCc2c(Cl)cccc2Cl)o1", "z-score": -0.145},
      {"smiles": "O=C(NC(=S)Nc1nc2c(ccc3ccccc32)s1)c1cccs1", "z-score": 2.78},
      {"smiles": "CCOc1ccccc1C1N(c2ccc(OC)cc2)C(=O)C2CCCN21", "note": "(stereo unspecified)", "z-score": -0.342},
      {"smiles": "CC1(C)CC(=O)C2=C(C1)N(c1ccc(F)cc1)C(=O)C2(NC(=O)c1ccccc1F)C(F)(F)F", "note": "(stereo unspecified)", "z-score": -0.00236},
      {"smiles": "O=C1CCCN1CC(O)CS(=O)(=O)c1ccc(Cl)cc1", "note": "(stereo unspecified)", "z-score": -0.78},
      {"smiles": "CCCCCn1c(N)c(C#N)c2nc3ccccc3nc21", "z-score": -0.278},
      {"smiles": "CC(C)(C)c1ccc(C(=O)Nc2ccc([N+](=O)[O-])cn2)cc1", "z-score": -0.401},
      {"smiles": "CCCc1noc2c1/C(=N\\O)CCC2", "z-score": 0.447},
      {"smiles": "Cn1c(SCC(=O)Nc2nc3c(s2)CCCC3)nnc1-c1ccccc1", "z-score": 0.228},
      {"smiles": "CN(c1ccccc1)c1ccc(/C=N/N2CCOCC2)cc1", "z-score": -0.277},
      {"smiles": "Cc1ccc(C2C3=C(CCCC3=O)N=C3c4ccccc4C(=O)C32)cc1", "note": "(stereo unspecified)", "z-score": -0.179},
      {"smiles": "CC12CCC(c3c(CO)nn(-c4ccccc4)c31)C2(C)C", "note": "(stereo unspecified)", "z-score": -0.228},
      {"smiles": "Cc1ccccc1S(=O)(=O)Oc1ccccc1C(=O)Oc1ccccc1", "z-score": -0.188},
      {"smiles": "CSc1cc(-c2ccccc2)n(Cc2ccccc2Cl)c(=O)c1C#N", "z-score": -0.122},
      {"smiles": "CC1(C)CC(=O)c2c(oc3cc(O)c(O)cc23)C1", "z-score": -0.367},
      {"smiles": "COc1ccc(CN2CC(C(=O)NCc3ccc4c(c3)OCO4)CC2=O)cc1", "note": "(stereo unspecified)", "z-score": 0.0327},
      {"smiles": "COc1ccc(C)cc1-n1c(-c2ccncc2)n[nH]c1=S", "z-score": -0.139},
      {"smiles": "COc1cccc(CN(C(=O)c2cc3ccccc3oc2=O)C2CC2)c1", "z-score": -0.0142},
      {"smiles": "Cc1cccc(-c2nnc(SCC#N)n2-c2cccc(Cl)c2)c1", "z-score": -0.285},
      {"smiles": "COC(=O)CSc1nnc(C)n1-c1ccc(C)cc1", "z-score": -0.293},
      {"smiles": "c1coc(-c2nnc(NC3=NCCC3)o2)c1", "z-score": 1.08},
      {"smiles": "O=C(CNC(=O)c1ccco1)OCc1cccc(Cl)c1", "z-score": -0.219},
      {"smiles": "COc1ccccc1CNC(=O)C1CCN(Cc2nc(-c3cccc(Cl)c3)oc2C)CC1", "z-score": -0.328},
      {"smiles": "CCCCCCn1c(=O)[nH]c2nc3cc(N)ccc3nc2c1=O", "z-score": 0.456},
      {"smiles": "CCCC(=O)Nc1ccccc1-c1nnn(CC(=O)Nc2ccc(OCC)cc2)n1", "z-score": -0.817},
      {"smiles": "CN=Cc1c(NC)nc2c(C)cccn2c1=O", "z-score": -0.43},
      {"smiles": "Cc1cc(C)c(S(=O)(=O)NCCCn2ccnc2)c(C)c1", "z-score": -0.0574},
      {"smiles": "O=C(Nc1ncn[nH]1)c1cc(S(=O)(=O)Nc2ccc(Cl)cc2)ccc1Cl", "z-score": -0.0295},
      {"smiles": "CC(C)NC(=O)c1cc2ccccc2o1", "z-score": -0.495},
      {"smiles": "Cc1nn(-c2ccccc2)c(Cl)c1/C=N\\NC(=O)c1cncc(Br)c1", "z-score": -0.407},
      {"smiles": "CC1(C)C2CC=C(/C=N/NC(=O)c3ccc(O)cc3)C1C2", "note": "(stereo unspecified)", "z-score": -0.0642},
      {"smiles": "COc1cccc(CNc2nc3ccccc3n2CCN2CCCCC2)c1OC", "z-score": -0.28},
      {"smiles": "COC(=O)c1cc2sccc2n1CC(=O)N1CCCc2ccccc21", "z-score": 2.64},
      {"smiles": "CNc1cc(CSC)nc(SCc2ccc(Cl)c(Cl)c2)n1", "z-score": 0.735},
      {"smiles": "CN(C)CC(=O)Nc1cc(C(F)(F)F)ccc1Cl", "z-score": -0.783},
      {"smiles": "CCOc1ccc(CCNC(=O)c2cccnc2N2CCCC2)cc1OCC", "z-score": -0.219},
      {"smiles": "CC1CCCC2(C1)NC(=S)N(c1ccccc1)N2", "note": "(stereo unspecified)", "z-score": -0.757},
      {"smiles": "CN(Cc1ccccc1)c1nc2c(c(=O)n(C)c(=O)n2C)n1CCCc1ccccc1", "z-score": 1.89},
      {"smiles": "COc1nc(NCc2cccnc2)nc(OC)n1", "z-score": 0.145},
      {"smiles": "COc1ccc(N2CCN(C(=O)CCCN3C(=O)c4cccc5cccc(c45)C3=O)CC2)cc1", "z-score": 0.249},
      {"smiles": "O=C(CSc1nnnn1-c1cccc2c1CCCC2)N1CCCCC1", "z-score": 0.0349},
      {"smiles": "CS(=O)(=O)N(CC(=O)N1CCN(Cc2ccc3c(c2)OCO3)CC1)c1ccc2c(c1)OCO2", "z-score": 0.57},
      {"smiles": "CCn1nc(C)c(C(=O)Nc2cc(Oc3cc(C)cc(C)c3)cc([N+](=O)[O-])c2)c1C", "z-score": -0.185},
      {"smiles": "CC(=O)Nc1cccc(-c2nc3ccccc3c(=O)o2)c1", "z-score": -1.25},
      {"smiles": "COC(=O)C1=NN(c2cccc(C)c2)C2C(=O)N(c3ccccc3OC)C(=O)C12", "note": "(stereo unspecified)", "z-score": -0.147},
      {"smiles": "CC(=O)c1noc(C)c1C(=O)Nc1nccs1", "z-score": -0.35},
      {"smiles": "CC(C)C(NS(=O)(=O)c1cccc2nsnc12)C(=O)NCc1ccc2c(c1)OCO2", "note": "(stereo unspecified)", "z-score": -0.269},
      {"smiles": "O=C(COC(=O)CCCN1C(=O)c2cccc3cccc(c23)C1=O)Nc1cccc(Br)c1", "z-score": 0.0456},
      {"smiles": "Cc1ccc(C(=O)NNC(=O)CSc2nc(N)cc(N)n2)cc1", "z-score": -0.067},
      {"smiles": "O=C(Cn1cccc1C(=O)c1ccccc1)NCCN1CCCCCC1", "z-score": -0.499},
      {"smiles": "CCOC(=O)C1=C(CNCCc2ccc(Cl)cc2)NC(=O)NC1c1ccc2c(c1)OCO2", "note": "(stereo unspecified)", "z-score": 0.268},
      {"smiles": "COC(=O)c1ccc(NC(=O)CN(c2ccc3c(c2)OCO3)S(C)(=O)=O)cc1", "z-score": -0.375},
      {"smiles": "CCOc1ccc(NC(=O)CCN2CCCCC2)cc1", "z-score": 0.253},
      {"smiles": "CCCCc1nc2ccccc2n1Cc1nnc2n1-c1ccccc1SC2", "z-score": -0.163},
      {"smiles": "CCC(C)Nc1nc(OC(C(F)(F)F)C(F)(F)F)nc(OC(C(F)(F)F)C(F)(F)F)n1", "note": "(stereo unspecified)", "z-score": 0.234},
      {"smiles": "CC1(C)COC(c2cccn2Cc2ccc(F)cc2Cl)=N1", "z-score": 0.0294},
      {"smiles": "CC1CC(C)(C)NC(=S)N1CC(=O)NCc1ccccc1Cl", "note": "(stereo unspecified)", "z-score": -0.127},
      {"smiles": "COc1ccc(CN2C(=O)c3ccccc3C(/C=N\\OCc3ccc(C)cc3)C2=O)cc1", "note": "(stereo unspecified)", "z-score": 2.42},
      {"smiles": "O=C(N/N=C/c1c[nH]c2ccc(Br)cc12)c1ccncc1", "z-score": -0.431},
      {"smiles": "COc1cc(OC)cc(C(=O)N2CCN(C(=O)c3ccc(OC)c(OC)c3)CC2)c1", "z-score": -0.111},
      {"smiles": "O=C(O)c1ccc(NCc2ccncc2)cc1", "z-score": 0.229},
      {"smiles": "Cc1cc(NC(=O)c2cccc(S(=O)(=O)N3CCCCCC3)c2)no1", "z-score": 0.223},
      {"smiles": "O=C(Cc1csc(N2CCOCC2)n1)N/N=C/c1ccc(Cl)cc1Cl", "z-score": -0.885},
      {"smiles": "COc1cccc(Nc2nc(-c3sc(NC(=O)c4ccco4)nc3C)cs2)c1", "z-score": 0.022},
      {"smiles": "N#CC1=C(Nc2ccccc2)SC=C(c2ccc(F)cc2)N=C1N1CCOCC1", "z-score": 0.177},
      {"smiles": "COc1cc2c(cc1NC(=O)CN1CCN(S(=O)(=O)c3ccccc3F)CC1)oc1ccccc12", "z-score": 0.0078},
      {"smiles": "CCn1c(-c2csc3c2CCC(C)C3)n[nH]c1=S", "note": "(stereo unspecified)", "z-score": 1.49},
      {"smiles": "COc1ccc2sc(N3C(=O)C4CC=C(C)CC4C3=O)nc2c1", "note": "(stereo unspecified)", "z-score": -0.425}
    ]}
  ]
}
